Source: PubChem BioAssay AID1645882 (National Center for Advancing Translational Sciences (NCATS), 2021)
Among all 16,000 compounds or so, about 120 (0.75%) were called active. Another 4% or so got no clear call; they are omitted. The call rests on the fitted dose curve; in most records, active means well fitted inhibition curve with a large enough effect; inconclusive means small, poorly fitted or top-dose-only effect; inactive means no such curve, though single readings can be large or run the other way. This is one part of the list.

Target: Rap guanine nucleotide exchange factor 3 (Homo sapiens) (UniProt O95398)
Test: Validation qHTS for antagonist of cAMP-regulated guanine nucleotide exchange factor 3 (EPAC1); further: nearly all actives have a fitted effect of over 75% in size;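 on activity change, negative = inhibition: plate controls were DMSO for no effect and ATA control for full effect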
Settings: EPAC1 Rap1B-BODIPY-GDP exchange, fluorescence; series mostly up to 150 µM; activity change, negative = inhibition: at the top concentration
Outline: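 EPAC1 (100 nM) mixed with 250 nM RAP1B-BODIPY-GDP and 50 uM GDP; compounds in concentration series, 5 min at room temperature. Fluorescence (ex 480/em 540 nm) read every 5 min for 30 min; normalized to ATA control and DMSO.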
Potency means the concentration at half of the fitted maximal effect.

UniProt O95398, sequence (O95398 whole entry, looked up): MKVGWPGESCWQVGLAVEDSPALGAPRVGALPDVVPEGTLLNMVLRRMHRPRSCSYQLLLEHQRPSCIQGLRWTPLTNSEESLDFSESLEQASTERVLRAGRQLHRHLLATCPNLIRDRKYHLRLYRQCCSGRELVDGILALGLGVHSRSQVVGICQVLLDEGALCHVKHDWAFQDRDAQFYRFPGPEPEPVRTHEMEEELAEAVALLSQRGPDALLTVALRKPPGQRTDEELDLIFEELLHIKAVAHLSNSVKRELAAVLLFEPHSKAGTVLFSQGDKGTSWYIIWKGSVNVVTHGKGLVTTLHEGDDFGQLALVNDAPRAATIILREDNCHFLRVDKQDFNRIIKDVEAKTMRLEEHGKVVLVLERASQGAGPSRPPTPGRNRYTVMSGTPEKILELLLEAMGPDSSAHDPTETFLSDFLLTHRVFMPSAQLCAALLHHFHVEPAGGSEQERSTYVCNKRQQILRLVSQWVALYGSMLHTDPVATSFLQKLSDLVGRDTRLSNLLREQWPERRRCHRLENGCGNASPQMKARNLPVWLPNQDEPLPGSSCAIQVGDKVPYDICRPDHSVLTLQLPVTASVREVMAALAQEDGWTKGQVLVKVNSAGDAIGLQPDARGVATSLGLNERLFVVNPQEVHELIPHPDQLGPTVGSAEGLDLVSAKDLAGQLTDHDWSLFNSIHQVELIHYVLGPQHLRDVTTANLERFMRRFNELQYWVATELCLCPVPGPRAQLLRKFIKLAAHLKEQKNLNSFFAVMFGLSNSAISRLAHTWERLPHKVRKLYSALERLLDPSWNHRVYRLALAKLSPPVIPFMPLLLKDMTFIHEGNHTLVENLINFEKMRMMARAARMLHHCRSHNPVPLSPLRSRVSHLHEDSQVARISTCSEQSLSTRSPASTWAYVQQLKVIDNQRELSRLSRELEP

Activity change, negative = inhibition, inactive:
O=C(O)[C@@H]1CN[C@@H](C(=O)O)C1 6.31%
OCCN1CCN(Cc2ccc3c(c2)CN(Cc2cccn2-c2ccccn2)CCO3)CC1 14.6%
C#CCN[C@@H]1CCc2ccccc21 8.65%
C[C@](N)(COP(=O)(O)O)C(=O)O 3.08%
Cn1c(=O)[nH]c2ncn(C)c2c1=O
Cc1nc2cncnc2n(C2CC2)c1=O 7.75%
COc1ccc2ccccc2c1CN1CCCC(n2cc(C(=O)N3CCCC3)nn2)C1 (stereo not drawn) 16.4%
COc1ccccc1CN1CC[C@@]2(CCCN(C(=O)c3cccn3C)C2)C1 28.1%
CCOc1ccc(NS(=O)(=O)c2ccc(N)cc2)nn1 16.7%
Cc1c(C(=O)N2CCN(C)CC2)sc2ncnc(NCC3(c4ccccc4)CCOCC3)c12 2.75%
C[C@@H]1OC(OC2C(OC3CC[C@@]4(C)C5CC=C6C7CC(C)(C)CC[C@@]7(C(=O)O)CCC6(C)C5(C)CCC4[C@]3(C)CO)OCC(O)C2O)C(O)C(O)C1O (stereo partly drawn) 11.2%
Cn1c(=O)cnc2cnc(OCc3ccccc3)nc21 5.54%
COCCn1c(=O)c(-c2ccc(Cl)cc2)nc2cncnc21 -3.65%
COc1ccc2[nH]cc(CCNc3ncnc4ccc(-c5ccccc5CN(C)C)cc34)c2c1 6.39%
C1COC(NC(C2CC2)C2CC2)=N1
N#Cc1cccc(-c2cc(NCc3cccnc3)ncn2)c1 7.18%
O=c1cc(-c2ccc(O)cc2O)oc2ccccc12 13.9%
O=c1c(-c2ccc(Cl)cc2)nc2cncnc2n1Cc1ccc(F)cc1 15.9%
COc1ccc(F)c(CN2CCC3(CCC(CNC(=O)c4ccn(C)n4)O3)CC2)c1 (stereo not drawn) 15%
O=C(CN1Cc2ccccc2OC(c2ccsc2)C1)N1CCC(c2nc3ccccc3[nH]2)CC1 (stereo not drawn) -1.79%
OC[C@H]1O[C@@H](n2cnc3c(NC4CCCC4)ncnc32)[C@H](O)[C@@H]1O
COc1ccc(/C=C/C(=O)c2ccc(O)cc2O)cc1 4.11%
CN1c2cc(O)c(N=NC(N)=O)cc2CC1S(=O)(=O)O (stereo not drawn) 5.06%
COc1cc(=O)n(C)c2c(OCC3OC(C)(C)OC3(C)C)cccc12 (stereo not drawn) 0.989%
C[N+](C)(C)CC=O 2.53% [at 75.8 µM]
N#Cc1ccc(CN2CC3(CCN(C(=O)c4cccc(F)c4)CC3)C2)cc1 -6.56%
C/C=C(\C)C(=O)NCCN1Cc2ccccc2OC(c2ccccc2OC)C1 (stereo not drawn) 0.312%
COc1ccc(NC(=O)N2CCC3(CC2)CCN(S(C)(=O)=O)CC3)cc1 17.4%
CC(=O)c1ccc(F)c(-c2cc(C)cc3c2OC(CNC(=O)C[C@@H]2C[C@@H](C)NC(=S)N2)C3)c1 (stereo partly drawn) 14.4%
CCC1(C2CCN(C(=O)c3ccc4ccccc4c3)CC2)NC(=O)N(CCc2scnc2C)C1=O (stereo not drawn) 11.6%
CC(C)=CCC1=C(O)[C@](O)(CC=C(C)C)C(=O)C(C(=O)CC(C)C)=C1O -3.17%
CC(C)O 0.667%
CCCS(=O)(=O)NCc1c(C)ncc2c1CCN(C(=O)/C=C/c1ccc(F)cc1F)C2 5.61%
O=S(=O)(c1ccccc1)N1CCC2(CCCN(Cc3nccs3)C2)CC1 1.2%
COC(=O)[C@@H]1CCCN1Cc1ccc2c(c1)CN(Cc1coc3ccc(C)cc3c1=O)CCO2 3.2%
O=C1CS(=O)(=O)N(Cc2cccc(F)c2)c2ccc(Br)cc21 -18.5%
COC(=O)Nc1nc2ccc(Sc3ccccc3)cc2[nH]1
CCCn1c(=O)[nH]c(=O)c2[nH]cnc21
COc1ccc(-c2nc3cnc(OC)nc3n(Cc3ccc(F)cc3)c2=O)cc1 22.3%
Oc1c(I)cc(Cl)c2cccnc12
O=C(Oc1ccccc1)N1CCC2(CC1)CN(c1ncccn1)C2 8.09%
C[C@@H](O)[C@H]1C(=O)N2C(C(=O)O)=C(S[C@@H]3CN[C@H](CNS(N)(=O)=O)C3)[C@H](C)[C@H]12 10.9%
COc1ncc2nc(-c3cc(F)cc(F)c3)c(=O)n(CCc3ccccc3)c2n1 0.491%
N[C@@](C(=O)O)(c1ccc(P(=O)(O)O)cc1)C1CC1 -4.62%
C=CC(C1=CC(=O)C(OC)=CC1=O)c1ccc(OC)cc1 (stereo not drawn) -2.47%
O=C(c1c(O)c2ccc(Cl)cc2[nH]c1=O)C1CC1
CC(C)(C#N)c1cc(Cn2cncn2)cc(C(C)(C)C#N)c1 10.2%
CC(C)Cn1cnc2c1c(=O)n(C)c(=O)n2C -10.4%
COc1ccc(-c2nc3cnc(Oc4cccc(Cl)c4)nc3n(C[C@H]3CCCO3)c2=O)cc1 3.69%
CO[C@H]1C[C@H](O[C@H]2[C@H](C)[C@@H](O[C@@H]3O[C@H](C)C[C@H](N(C)C)[C@H]3O)[C@@H](C)C[C@]3(CO3)C(=O)[C@H](C)[C@@H](O)[C@@H](C)[C@@H](C)OC(=O)[C@@H]2C)O[C@@H](C)[C@@H]1O -0.561% [at 75.8 µM]
CCCCCCCCCCCCCCC[C@H](O)[C@H](N)CO -1.07% [at 75.8 µM]
C[N+](C)(C)CCO
COC(=O)/C=C/c1cc(O)ccc1O 9.46%
COc1ccc(-c2cc(=O)c3cc(OC)ccc3o2)cc1 -8.01%
COc1ccc(-c2oc3c(CC=C(C)C)c(O[C@H]4OC(CO)C(O)C(O)C4O)cc(O)c3c(=O)c2O[C@@H]2OC(C)C(O)C(O)C2O)cc1 (stereo partly drawn) -6.44%
CC(=O)c1ccc2c(c1)N(CCCN(C)C)c1ccccc1S2 14.2% [at 75.8 µM]
COc1cccc(-c2cc(=O)c3ccccc3o2)c1N
C=CCNC(N)=S 7.12%
CN(C)CCOC(C)(c1ccccc1)c1ccccn1 (stereo not drawn)
COC(=O)[C@@H]1CCCN1Cc1ccc2c(c1)CN(Cc1ccccc1F)CCO2 22.4%
CC(=O)OC1CC2C(C)(C)C(O)CC(O)[C@@]2(C)C2CC[C@@]3(C)C(=CC(=O)OC3c3ccoc3)[C@]12C (stereo partly drawn) -4.66%
COc1cccc(-c2nc3cc4c(cc3cc2CN(C(=O)c2csc(C)n2)C2CC2)CCC4)c1OC 5.84%
Cn1c(=O)c(CCc2ccccc2)nc2cncnc21 -1.85%
Cn1ccc(O)c(C#N)c1=O -16%
COC(=O)c1c(OCc2cccnc2)cc(=O)n2c1CCN(Cc1cc3c(cc1Cl)OCO3)CC2 -7.61%
N#Cc1ccc(CN2CCCC3(CCN(C(=O)c4ccncc4)CC3)C2)cc1 14.9%
NC(=S)NS(=O)(=O)c1ccc(N)cc1 13.9%

Potency, active:
N#C/C(=C\c1ccc(O)c(O)c1)C(=O)OCCc1cccs1 39.8 µM
